Test results reported in US20190231847A1, “TREATMENT OF OCULAR DISEASE” (priority 2016, published 2019).

Tested on: retinal inflammation
Assay: Mouse experimental autoimmune uveitis (EAU) model, clinical score from fundus images (TEFI)
Conditions: ALM201 0.3 mg/kg

IRQQPRDPPTETLELEVSPDPAS (listed as Homo Sapiens) [ALM201]
Retinal inflammation clinically and histologically: slightly reduced retinal inflammation
